# This is one part of the list. Values were computed here from the reads of four pooled replicates and scatter widely.
# Molecular target: T1, Pho4 (S. cerevisiae) (UniProt P07270)
# T1 sequence: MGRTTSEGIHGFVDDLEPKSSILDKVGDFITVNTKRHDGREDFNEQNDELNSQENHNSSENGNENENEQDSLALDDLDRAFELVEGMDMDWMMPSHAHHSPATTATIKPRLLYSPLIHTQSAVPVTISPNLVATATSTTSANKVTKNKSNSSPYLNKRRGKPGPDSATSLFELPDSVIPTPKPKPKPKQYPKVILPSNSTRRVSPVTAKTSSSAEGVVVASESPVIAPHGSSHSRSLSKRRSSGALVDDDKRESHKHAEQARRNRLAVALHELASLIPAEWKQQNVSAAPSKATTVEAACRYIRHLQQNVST
# Assay: relative binding free energy (BET-seq); higher = weaker binding
# Details: reference: library average
row,Sequence,relative binding free energy
1,ATGGTCACGTGTTGCT,0.19 kcal/mol
2,CGCTTCACGTGTTTTG,0.33 kcal/mol
3,TGATGCACGTGTTTGT,-0.13 kcal/mol
4,GGTGACACGTGGGCGT,-0.09 kcal/mol
5,TGTTACACGTGTGGAT,0.13 kcal/mol
6,GTCTGCACGTGGGCAG,-0.08 kcal/mol
7,TTCAGCACGTGGGTGA,-0.18 kcal/mol
8,GTAAGCACGTGAGGTT,0.3 kcal/mol
9,TTAATCACGTGATTAT,0.16 kcal/mol
10,CGGTGCACGTGTGAGG,0.06 kcal/mol
11,GTGGTCACGTGTTCGC,0.15 kcal/mol
12,GTTCACACGTGGGAAT,0.29 kcal/mol
13,GCGATCACGTGGGAGG,0.18 kcal/mol
14,GCGGTCACGTGTGTGA,0.24 kcal/mol
15,CGGAACACGTGGTGGG,0.03 kcal/mol
16,GGAATCACGTGGTGTG,0.11 kcal/mol
17,TTGGCCACGTGTGAGA,0.05 kcal/mol
18,GTTCACACGTGGTTCT,0.14 kcal/mol
19,GGGGGCACGTGGTAGG,-0.18 kcal/mol
20,TTGTACACGTGGACTG,0 kcal/mol
21,AGATGCACGTGAATGT,0.14 kcal/mol
22,TTGGTCACGTGGGGGA,0.03 kcal/mol
23,GGTGACACGTGGGTGT,-0.05 kcal/mol
24,CAAGTCACGTGGGTGT,-0.06 kcal/mol
25,GTGCGCACGTGGTCAG,-0.16 kcal/mol
26,TCGAGCACGTGATGTT,0 kcal/mol

row,Sequence,relative binding free energy
1,TGTGGCACGTGGCCTT,-0.17 kcal/mol
2,TTTTACACGTGGCTCG,0.07 kcal/mol
3,AACCTCACGTGGTGGG,0.29 kcal/mol
4,TAGGGCACGTGGGGTG,-0.17 kcal/mol
5,AGATGCACGTGCATGG,0 kcal/mol
6,GGGGTCACGTGCTTTG,0.22 kcal/mol
7,TTGGACACGTGATGGA,0.18 kcal/mol
8,TACATCACGTGGTGTG,-0.04 kcal/mol
9,TCGTACACGTGTAAGG,0.19 kcal/mol
10,GGGTGCACGTGGAGAT,0.06 kcal/mol
11,TATTTCACGTGGTGGA,0.28 kcal/mol
12,GGTTACACGTGCTTAT,0.1 kcal/mol
13,TGGCGCACGTGCGTTA,-0.15 kcal/mol
14,TAAGGCACGTGAAATT,0.14 kcal/mol
15,TGGGCCACGTGACGTG,0.03 kcal/mol
16,CAGTTCACGTGTTTGT,0.21 kcal/mol
17,GGAGGCACGTGTTAAA,-0.09 kcal/mol
18,GTCGTCACGTGGTTAA,0.15 kcal/mol
19,TGATACACGTGAGGTT,0.23 kcal/mol
20,GGAGTCACGTGATGCG,0.31 kcal/mol
21,GGAGTCACGTGGAGTG,0.24 kcal/mol
22,GATTACACGTGTAGAG,0.21 kcal/mol
23,TGGAACACGTGATGGA,0.24 kcal/mol
24,GTATACACGTGTTGTC,0.12 kcal/mol
25,AGAAACACGTGAAGGG,0.25 kcal/mol
26,TTGGGCACGTGGGTCA,-0.25 kcal/mol

row,Sequence,relative binding free energy
1,AGTTCCACGTGGGAGG,-0.1 kcal/mol
2,GTCATCACGTGTTATG,0.2 kcal/mol
3,GGAGTCACGTGATGTG,0.18 kcal/mol
4,GATTCCACGTGGTGTT,0.01 kcal/mol
5,TTTTGCACGTGGAACG,0.08 kcal/mol
6,ATGAACACGTGTTGAA,0.1 kcal/mol
7,TTGTACACGTGATTTT,0.18 kcal/mol
8,AGGAACACGTGGTGAG,-0.09 kcal/mol
9,CGGATCACGTGGCGTT,0.05 kcal/mol
10,GGTGACACGTGGGAAA,0.02 kcal/mol
11,GTAGACACGTGACTGG,0.2 kcal/mol
12,TATGGCACGTGGTTGG,-0.06 kcal/mol
13,AGGGCCACGTGTGAGT,-0.02 kcal/mol
14,TTTTGCACGTGAACGT,0.05 kcal/mol
15,GAGGTCACGTGTTACG,0.24 kcal/mol
16,GTGGTCACGTGTAGAT,0.23 kcal/mol
17,GTTTTCACGTGTTGTG,0.36 kcal/mol
18,TCAGTCACGTGGTGTA,-0.14 kcal/mol
19,GGTGACACGTGAAATT,0.36 kcal/mol
20,GCATTCACGTGTAGTT,0.45 kcal/mol
21,AGAGTCACGTGGGTAG,0.06 kcal/mol
22,GTAGTCACGTGGGAGA,0.02 kcal/mol
23,AGTGACACGTGGATGG,0.01 kcal/mol
24,GTCAGCACGTGGGATG,-0.26 kcal/mol
25,GTTCTCACGTGGGCGT,0.17 kcal/mol
26,TAATTCACGTGATATA,0.25 kcal/mol

row,Sequence,relative binding free energy
1,AATTTCACGTGGTACA,0.29 kcal/mol
2,AAAGTCACGTGTGTTC,0.2 kcal/mol
3,ATTTTCACGTGGTGTA,0.24 kcal/mol
4,TTTATCACGTGTCGGG,0.22 kcal/mol
5,GACGTCACGTGTGGTT,0.19 kcal/mol
6,GTTAGCACGTGGTACT,-0.04 kcal/mol
7,TGGGTCACGTGATAGG,0.29 kcal/mol
8,GAGAACACGTGGGGCG,0.07 kcal/mol
9,ATTGGCACGTGAATCG,0.08 kcal/mol
10,AGGCTCACGTGGGATA,0.15 kcal/mol
11,AGATGCACGTGTGGAT,-0.05 kcal/mol
12,TTTGACACGTGGCAAT,-0.06 kcal/mol
13,TTCGTCACGTGACTGG,0.29 kcal/mol
14,TGGCGCACGTGTGCTA,-0.03 kcal/mol
15,TAGTTCACGTGAAGGT,0.31 kcal/mol
16,CGGATCACGTGGAGGA,0.18 kcal/mol
17,AAGGGCACGTGAGAGT,0.24 kcal/mol
18,AAGTTCACGTGTCGTT,0.22 kcal/mol
19,GTTGCCACGTGGATGT,-0.02 kcal/mol
20,GGTTGCACGTGGAGTT,0.11 kcal/mol
21,GCGGACACGTGTAAGT,0.24 kcal/mol
22,AGTTTCACGTGCAGAT,0.21 kcal/mol
23,AGCGGCACGTGGATGT,-0.01 kcal/mol
24,ATTGTCACGTGTGATT,0.26 kcal/mol
25,ATAGTCACGTGGGGAC,-0.09 kcal/mol
26,GGCGACACGTGTTGTA,0.09 kcal/mol

row,Sequence,relative binding free energy
1,AATGCCACGTGGGAGG,-0.15 kcal/mol
2,GAGCGCACGTGGGCTG,-0.1 kcal/mol
3,GTAATCACGTGAGTTA,0.32 kcal/mol
4,TGAGTCACGTGGCGGC,0.11 kcal/mol
5,GGGGCCACGTGGGGTA,-0.21 kcal/mol
6,TGTTCCACGTGAGTTA,0.18 kcal/mol
7,TTTTGCACGTGTCTGT,0.14 kcal/mol
8,ATATACACGTGGATTT,0.04 kcal/mol
9,ATCTGCACGTGACGGG,0.24 kcal/mol
10,AGGTCCACGTGGGTGA,-0.02 kcal/mol
11,TGATTCACGTGGATGG,0.3 kcal/mol
12,CTCGTCACGTGTGCGG,0.15 kcal/mol
13,CAGTTCACGTGTGGGT,0.29 kcal/mol
14,TTGGTCACGTGCGCGA,-0.05 kcal/mol
15,AATTGCACGTGAGTTT,0.21 kcal/mol
16,TAGCGCACGTGGGTAT,-0.2 kcal/mol
17,GTGGACACGTGTGCTT,0.03 kcal/mol
18,TGTCTCACGTGTGTAT,0.03 kcal/mol
19,TATGTCACGTGGGAGA,0.03 kcal/mol
20,GTTTACACGTGACTGG,0.18 kcal/mol
21,GATTACACGTGAGTTA,0.47 kcal/mol
22,TGGGTCACGTGAATTG,0.44 kcal/mol
23,ATCAGCACGTGTGGGG,0.07 kcal/mol
24,GATTACACGTGGTCTT,0.19 kcal/mol
25,GATGTCACGTGGACGT,0.14 kcal/mol
26,GTGGACACGTGATTTG,0.22 kcal/mol

row,Sequence,relative binding free energy
1,TTCGACACGTGGATGG,0.15 kcal/mol
2,TGCGTCACGTGTCGTT,-0.04 kcal/mol
3,GGTGACACGTGCGTAG,0.03 kcal/mol
4,ATATGCACGTGGCTAG,-0.14 kcal/mol
5,CGTTGCACGTGGGACT,-0.09 kcal/mol
6,TAAAGCACGTGTGTTT,-0.1 kcal/mol
7,GTGGTCACGTGCAGTA,0.19 kcal/mol
8,GGAAGCACGTGGCGGG,-0.24 kcal/mol
9,TTGGCCACGTGTTATG,0.05 kcal/mol
10,TATGTCACGTGAGGGG,0.3 kcal/mol
11,GGAGTCACGTGGGACT,0.16 kcal/mol
12,ACGGGCACGTGGGCTG,-0.3 kcal/mol
13,TGCGGCACGTGGGATA,-0.13 kcal/mol
14,CAGGACACGTGGTAGG,-0.02 kcal/mol
15,TATGACACGTGTGGGT,0.05 kcal/mol
16,AAGTGCACGTGACGGT,0.16 kcal/mol
17,GTGGGCACGTGTCGAT,-0.11 kcal/mol
18,ATAGTCACGTGGTCAG,-0.04 kcal/mol
19,GCATTCACGTGATTAT,0.42 kcal/mol
20,TGTGACACGTGGGATG,-0.11 kcal/mol
21,CACGTCACGTGTGTGT,0.01 kcal/mol
22,GGTCTCACGTGTAAGT,0.31 kcal/mol
23,CATGTCACGTGGAAGT,0.14 kcal/mol
24,TTGTGCACGTGAATTA,0.23 kcal/mol
25,TTAAGCACGTGTTGCG,-0.14 kcal/mol
26,TGGAGCACGTGTTAGG,-0.04 kcal/mol

row,Sequence,relative binding free energy
1,AGAGTCACGTGGGGAT,0.02 kcal/mol
2,GTATTCACGTGTTCAG,0.25 kcal/mol
3,TGGGCCACGTGAACGG,0.21 kcal/mol
4,AGGTGCACGTGCTGAG,0 kcal/mol
5,GTGACCACGTGGGCGT,-0.17 kcal/mol
6,ATGCTCACGTGAGGTT,0.42 kcal/mol
7,TAGTTCACGTGGATCT,0.24 kcal/mol
8,TAGCGCACGTGGGGAT,-0.32 kcal/mol
9,GTAGCCACGTGGGCTG,-0.21 kcal/mol
10,CTATTCACGTGGTGTG,0.19 kcal/mol
11,AAGGCCACGTGTGTTG,-0.03 kcal/mol
12,TAGTCCACGTGTAGTT,0.04 kcal/mol
13,GATAGCACGTGGGGTC,-0.21 kcal/mol
14,GTGTCCACGTGAAAGG,0.26 kcal/mol
15,GGATGCACGTGCGTAA,0.09 kcal/mol
16,TATGTCACGTGATTCT,0.15 kcal/mol
17,GTGAACACGTGCGGCT,0.16 kcal/mol
18,ACTATCACGTGTGTGT,0.12 kcal/mol
19,ATGGCCACGTGTTGAG,0.05 kcal/mol
20,AGGTGCACGTGGCTGA,-0.08 kcal/mol
21,GGTTACACGTGTCGTG,0.09 kcal/mol
22,ATAGGCACGTGCGGTC,-0.05 kcal/mol
23,TGTGCCACGTGAGGAG,0.13 kcal/mol
24,GTCCGCACGTGGTGGT,0.01 kcal/mol
25,GTTCTCACGTGGAGAG,0.36 kcal/mol
26,ATTGGCACGTGTTGGG,-0.07 kcal/mol

row,Sequence,relative binding free energy
1,AAGACCACGTGTTGGG,0.12 kcal/mol
2,CGAGTCACGTGTAATT,0.36 kcal/mol
3,GATATCACGTGATATT,0.27 kcal/mol
4,GTGGCCACGTGTAGAG,-0.06 kcal/mol
5,GTATGCACGTGGGTCG,-0.06 kcal/mol
6,GCATGCACGTGCGTGT,-0.03 kcal/mol
7,CGTGGCACGTGAATGG,0.11 kcal/mol
8,TTTCACACGTGTTGCT,-0.01 kcal/mol
9,TTTAACACGTGCTATT,-0.06 kcal/mol
10,TTTGACACGTGCAGTA,-0.08 kcal/mol
11,GTTGTCACGTGGTGCA,0.18 kcal/mol
12,GATGTCACGTGGAAGT,0.36 kcal/mol
13,ATATACACGTGGTTTT,-0.02 kcal/mol
14,GTGTACACGTGCTGTA,-0.07 kcal/mol
15,CAGCGCACGTGGGAGG,-0.23 kcal/mol
16,CCTGGCACGTGATGGG,0 kcal/mol
17,TGATACACGTGGGATA,-0.06 kcal/mol
18,TGTTACACGTGGGTAC,-0.02 kcal/mol
19,GCATACACGTGAGGGG,0.37 kcal/mol
20,GGTTACACGTGCGGTC,0.13 kcal/mol
21,TGTTACACGTGTTACA,0.22 kcal/mol
22,GTGGACACGTGAGTAG,0.3 kcal/mol
23,AGATTCACGTGTGATT,0.39 kcal/mol
24,AACGGCACGTGTGGCG,0 kcal/mol
25,TTGATCACGTGTATTA,0 kcal/mol
26,TGCGTCACGTGCGTTT,-0.1 kcal/mol

row,Sequence,relative binding free energy
1,TTAATCACGTGGGGAA,0.09 kcal/mol
2,GCGATCACGTGGTTGG,0.09 kcal/mol
3,GATTACACGTGGTATG,0.08 kcal/mol
4,TTTCGCACGTGTGGTC,0.15 kcal/mol
5,GATTCCACGTGGCGTT,0.24 kcal/mol
6,GTTATCACGTGGAGTC,0.27 kcal/mol
7,GAGCGCACGTGATGGT,0.04 kcal/mol
8,ATTTTCACGTGGCATT,0.11 kcal/mol
9,GGCTGCACGTGTGATG,-0.05 kcal/mol
10,TTAATCACGTGACTGG,0.32 kcal/mol
11,GGGTGCACGTGTTATT,0.1 kcal/mol
12,GCGGGCACGTGTTCGG,-0.08 kcal/mol
13,TGGAGCACGTGAGTCT,0.1 kcal/mol
14,TGATTCACGTGGGTCT,0.18 kcal/mol
15,TGCGACACGTGGTTTT,0.01 kcal/mol
16,GTTGTCACGTGCGTGG,0.15 kcal/mol
17,TTGGTCACGTGTTTGC,0.08 kcal/mol
18,GAGTTCACGTGGCGAG,0.23 kcal/mol
19,AATAGCACGTGTTTAG,-0.05 kcal/mol
20,TGGCTCACGTGTACGG,0.28 kcal/mol
21,ATGTGCACGTGTAACG,0.03 kcal/mol
22,AGTAGCACGTGGCGGG,-0.22 kcal/mol
